{"source": "paper PMC7819943", "about": "“Rice protein-binding microarrays: a tool to detect cis-acting elements near promoter regions in rice”", "note": "The list shows a part of the results."}
{"target": "T1, OsWOX13 (Oryza sativa, UniProt Q5QMM3 1-267)", "T1 sequence": "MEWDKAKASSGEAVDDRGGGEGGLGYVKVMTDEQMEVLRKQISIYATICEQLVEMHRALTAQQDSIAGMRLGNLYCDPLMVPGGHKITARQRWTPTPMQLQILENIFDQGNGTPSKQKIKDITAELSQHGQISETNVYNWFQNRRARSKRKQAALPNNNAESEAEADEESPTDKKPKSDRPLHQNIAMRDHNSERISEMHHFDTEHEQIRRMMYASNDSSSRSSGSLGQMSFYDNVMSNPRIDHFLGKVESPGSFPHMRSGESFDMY", "experiment": "protein-binding microarray (RPBM); PBS, 2% BSA, 51.3 ng/ul salmon testes DNA, 50 uM zinc acetate, 200 nM TF, 25 C, 1 h; high values mean tight binding", "conditions": "protein: recombinant; tags: N-terminal polyhistidine and DsRed monomer fusion (pET32a); label: CyDye5-dUTP incorporated in the synthesized complementary strand; 3' TTTTT single-stranded linker to array surface; dsDNA, one strand shown", "outline": "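An Axon 4000B scanner gave the binding signal as per-feature fluorescence intensity in arbitrary units. This followed washing of a custom Agilent array that had been incubated for 1 h at 25 °C with 200 nM protein in PBS, 2% BSA, salmon testes DNA and 50 µM zinc acetate. The proteins were transcription factors fused at the N-terminus to polyhistidine and DsRed, expressed in E. coli BL21-CodonPlus and purified on Ni–NTA.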"}
{"sequence": "TATCTAGATTAGAATTTTCTTAATTTTACAATTGTATGATCGGAGTCACCTAGTGCAG", "binding signal": "21600 fluorescence intensity (a.u.)"}
{"sequence": "GACAGCGAGTGACAAATAATTAATTGTAGTAATAATTAATCGGAGTCACCTAGTGCAG", "binding signal": "7980 fluorescence intensity (a.u.)"}
{"sequence": "CTATAAATGGAGATGATCAGAGGAAAGGAAACTATGTTTTCGGAGTCACCTAGTGCAG", "binding signal": "3460 fluorescence intensity (a.u.)"}
{"sequence": "AATCTATACCTATACTAATTGGACACTTTCTACGAGCTCCCGGAGTCACCTAGTGCAG", "binding signal": "6470 fluorescence intensity (a.u.)"}
{"sequence": "CGGATAAATTTAAGACAGCCCAAATATTCCTAAAACGGAGCGGAGTCACCTAGTGCAG", "binding signal": "6940 fluorescence intensity (a.u.)"}
{"sequence": "TAGAGATTGAGAATGTTTTCAGTGCAATTGTATCTCCTTGCGGAGTCACCTAGTGCAG", "binding signal": "15900 fluorescence intensity (a.u.)"}
{"sequence": "ACCGATTTGTTTGTATTATTTACAATCATTTAGCTACTGCCGGAGTCACCTAGTGCAG", "binding signal": "3800 fluorescence intensity (a.u.)"}
{"sequence": "TACGTAACCCTTAATTGGTACACACTTGTTTATATTATTTCGGAGTCACCTAGTGCAG", "binding signal": "11100 fluorescence intensity (a.u.)"}
{"sequence": "TAAATAAATTCTTAAATTTAAAATACACAAGAATTTCAAGCGGAGTCACCTAGTGCAG", "binding signal": "4560 fluorescence intensity (a.u.)"}
{"sequence": "AGATCAAATCAACTCCATGAATTATGAATCATCATTCATGCGGAGTCACCTAGTGCAG", "binding signal": "8570 fluorescence intensity (a.u.)"}
{"sequence": "CTTCGATTGGTTTGTTGGTTTGACTGGAATTCGGATGGATCGGAGTCACCTAGTGCAG", "binding signal": "18200 fluorescence intensity (a.u.)"}
{"sequence": "CTGCACATGATTTCAATCTACTATGGACATTCTCACTCTCCGGAGTCACCTAGTGCAG", "binding signal": "20000 fluorescence intensity (a.u.)"}
{"sequence": "AAAACCTGTGATTAATGCAGTCCTATTACCATCTCAGGCCCGGAGTCACCTAGTGCAG", "binding signal": "7410 fluorescence intensity (a.u.)"}
{"sequence": "TACTGCTGGATTGAATTAATGGATCAAGACTGAATTTATCCGGAGTCACCTAGTGCAG", "binding signal": "12100 fluorescence intensity (a.u.)"}
{"sequence": "TGCTGGTAAATTATTTCATATATTATTACTCCTAATAAGTCGGAGTCACCTAGTGCAG", "binding signal": "4900 fluorescence intensity (a.u.)"}
{"sequence": "TCTCTGCTGATTTACTGATAAGAACATGCTCAATTGTTTCCGGAGTCACCTAGTGCAG", "binding signal": "8670 fluorescence intensity (a.u.)"}
{"sequence": "CGCCTTAAATTATCTCTCCTCCTCGCCGCGTTCCTCTCGCCGGAGTCACCTAGTGCAG", "binding signal": "9220 fluorescence intensity (a.u.)"}
{"sequence": "CATGCCAGATTGCGATTGAAAGCTGGAAACTACGGCTCAACGGAGTCACCTAGTGCAG", "binding signal": "4240 fluorescence intensity (a.u.)"}
{"sequence": "GTAGACAGGTTACATCCAGACCATCACCAGTCACTCAGCTCGGAGTCACCTAGTGCAG", "binding signal": "3290 fluorescence intensity (a.u.)"}
{"sequence": "AATCTTTCCAATCAGAACATATACACTCATTACGTTTGCTCGGAGTCACCTAGTGCAG", "binding signal": "8980 fluorescence intensity (a.u.)"}
{"sequence": "TCTTTTCAAATTCCTAATCAACGCACCATTTCATATGGATCGGAGTCACCTAGTGCAG", "binding signal": "3150 fluorescence intensity (a.u.)"}
{"sequence": "AATTTCTCTTTAATTAACTTTCCTGTCATTTTCTCACCCCCGGAGTCACCTAGTGCAG", "binding signal": "5780 fluorescence intensity (a.u.)"}
{"sequence": "ATAATGATAATTTAATTATTAATTTAATAAAACTATTTTGCGGAGTCACCTAGTGCAG", "binding signal": "52100 fluorescence intensity (a.u.)"}
